This assay concerns the target CD8 (protein not named in Table 16).

B1: CD8 binder 46 (scFv) (scFv, V domains shown)
VH: QVQLVQSGAEVKKPGASVKVSCKASGYTFTSYYMHWVRQAPGQGLEWMGGFDPEDGETIYAQKFQGRVTMTRDTSTSTVYMELSSLRSEDTAVYYCARDQGWGMDVWGQGTTVTVSS
VL: [about 100 residues cut from this listing]
Consider B1, for which the Highest Response (nm) is 0.491 nm, the Kd was 95.2 nM, the koff is 0.00821 s⁻¹ and the kon was 86300 M⁻¹ s⁻¹.

In general, Kd refers to a measure of binding affinity in units of concentration. Low readings indicate tighter binding, high ones weaker binding. For orientation: koff means the rate constant with which the complex falls apart. Low readings indicate a long-lived complex, high ones a short-lived complex. By kon is commonly meant the second-order rate constant of association.

The values above are taken from patent US20260265780A1.
